The campaign covered roughly 310,000 compounds. About 14,000 (4.5%) showed an effect of 50% or more. The effect is printed as a negative number. The list shows a part of the results.
molecular target: human ether-à-go-go-related gene (hERG) potassium channel (human, UniProt Q12809); assay: primary screen, population patch clamp on CHO cells stably expressing hERG
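Also: peak tail current of the secondary pulse compared with the same well before compound.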

Sequence of human ether-à-go-go-related gene (hERG) potassium channel (Q12809 whole entry, looked up): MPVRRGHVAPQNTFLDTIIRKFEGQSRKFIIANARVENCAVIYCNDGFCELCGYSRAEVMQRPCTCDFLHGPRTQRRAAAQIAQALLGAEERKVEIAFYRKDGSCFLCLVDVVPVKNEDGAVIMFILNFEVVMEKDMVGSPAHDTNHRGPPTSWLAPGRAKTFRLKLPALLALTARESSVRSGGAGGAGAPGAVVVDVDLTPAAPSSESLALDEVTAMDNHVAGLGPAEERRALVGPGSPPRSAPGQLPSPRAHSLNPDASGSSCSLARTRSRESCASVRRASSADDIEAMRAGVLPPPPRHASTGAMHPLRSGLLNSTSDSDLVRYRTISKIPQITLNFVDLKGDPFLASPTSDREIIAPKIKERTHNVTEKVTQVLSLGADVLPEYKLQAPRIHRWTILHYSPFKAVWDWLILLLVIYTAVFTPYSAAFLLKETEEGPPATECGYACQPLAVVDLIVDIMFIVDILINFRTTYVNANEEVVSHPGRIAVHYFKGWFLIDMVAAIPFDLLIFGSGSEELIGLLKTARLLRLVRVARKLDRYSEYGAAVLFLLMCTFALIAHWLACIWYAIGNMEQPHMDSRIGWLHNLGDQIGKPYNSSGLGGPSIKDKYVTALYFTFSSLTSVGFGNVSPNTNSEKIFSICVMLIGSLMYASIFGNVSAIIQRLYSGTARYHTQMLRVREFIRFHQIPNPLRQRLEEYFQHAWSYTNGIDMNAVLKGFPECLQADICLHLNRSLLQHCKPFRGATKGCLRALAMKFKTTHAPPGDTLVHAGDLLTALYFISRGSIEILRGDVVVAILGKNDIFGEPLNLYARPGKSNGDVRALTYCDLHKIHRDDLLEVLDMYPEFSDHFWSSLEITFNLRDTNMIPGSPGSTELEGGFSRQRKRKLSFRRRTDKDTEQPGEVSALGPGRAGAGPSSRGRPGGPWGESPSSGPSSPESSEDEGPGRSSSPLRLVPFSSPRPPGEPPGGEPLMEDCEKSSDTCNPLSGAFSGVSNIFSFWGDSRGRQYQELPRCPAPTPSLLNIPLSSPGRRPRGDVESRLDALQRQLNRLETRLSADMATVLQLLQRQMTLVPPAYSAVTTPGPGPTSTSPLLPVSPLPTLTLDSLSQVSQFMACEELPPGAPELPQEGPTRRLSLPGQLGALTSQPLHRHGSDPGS

Row | Structure (SMILES) | hERG current change (%, negative = inhibition) at 10uM
1 | CCN(Cc1ccccc1)S(=O)(=O)c1ccc(C(=O)Nc2nnc(C)o2)cc1 | -14%
2 | CCCn1nnnc1SCC(=O)NCc1ccc(OC)cc1 | 2.58%
3 | COc1ccc(-c2noc(CCC(=O)Nc3cc(OC)ccc3OC)n2)cc1 | -14.7%
4 | Oc1c(Br)cc(Br)cc1CNc1cccc2cccnc12 | -27.4%
5 | Cc1cc(-c2ccccc2C(=O)Nc2ccccc2O)on1 | 4.73%
6 | COc1ccc(/C=N/n2c(C)nnc2C)c(OC)c1 | 7.7%
7 | CCCCNC(=O)OCCNC(=O)Oc1cccc(C)c1 | -10.9%
8 | Cc1nn(C)c(Oc2ccccc2)c1CCNC(=O)CCl | 35.6%
9 | COCCNC(=O)/C(C#N)=C/c1c(N2CCN(C)CC2)nc2ccccn2c1=O | 17.6%
10 | CCCCCCn1c(CN2CCCCC2)nc2c1c(=O)n(C)c(=O)n2C | -35.7%
11 | CC1(C(=O)Nc2ccccc2)Cc2ccccc2C(=O)O1 (centres unmarked) | -1.99%
12 | CCc1ccccc1NC(=O)/C(=C/c1ccccc1)c1ccccc1 | -11.7%
13 | CC(=O)NCCn1c(SCc2cc(F)ccc2F)nc2ccccc2c1=O | -2.33%
14 | c1ccn(-c2ccc(N3CCOCC3)cc2)c1 | -1.83%
15 | Oc1ccccc1CN1CCCN(Cc2ccccc2O)C1 | -4.16%
16 | S=c1c2c(nc3nc[nH]n13)CCC2 | 16.4%
17 | C/C=C\C=C\C(=O)N1CC2(CC(c3cccc(NC(=O)CC)c3)=NO2)C[C@H]1C(N)=O (some centres unmarked) | 1.38%
18 | CCc1ccc(S(=O)(=O)Nc2c(C)n(C)n(-c3ccccc3)c2=O)cc1 | -2.47%
19 | COc1ccc(C(NC(=O)c2cccnc2)c2cc(Cl)c3cccnc3c2O)cc1OC (centres unmarked) | 10.5%

Row | Structure (SMILES) | hERG current change (%, negative = inhibition) at 10uM
20 | CCOc1ccc(S(=O)(=O)NCCC(=O)NCCOc2ccccc2)cc1 | -20.1%
21 | CCC1CCCCN1C(=O)CCS(=O)(=O)c1ccc2c(c1)CCN2C(C)=O (centres unmarked) | 11.1%
22 | O=[N+]([O-])c1ccc(-c2cn3ccccc3n2)cc1 | 4.52%
23 | O=C(CSc1nc(Nc2ccccc2)nc(N2CCOCC2)n1)Nc1ccc(Br)cc1F | 12%
24 | CCOc1ccc(C(=O)Nc2ccc(NC(=O)c3ccccc3)c(C)c2)cc1[N+](=O)[O-] | 13.5%
25 | CCC(=O)Nc1cc(C(F)(F)F)ccc1N1CCCC1 | 1.46%
26 | CCN(CC)CC(=O)Nc1ccc(-c2ccc(NC(=O)CN(CC)CC)c(OC)c2)cc1OC | 10.7%
27 | COc1ccccc1NC(=O)NC1(C(=O)N2CCCCCC2)CCCCC1 | 13%
28 | Cl.OC(COCc1ccc(Cl)cc1)CN1CCN(c2ccccn2)CC1 (centres unmarked) | -66.4%
29 | O=C(CSc1ccccc1Cl)NC1CCCc2ccccc21 (centres unmarked) | -1.17%
30 | Cc1cc(COc2ccccc2)oc1C(=O)O | 16.1%
31 | CCOC(=O)c1nn(-c2ccc(C)cc2)c2nc(Nc3ccccc3)cc(=O)n12 | 21.9%
32 | Cc1ccc(C(=O)N/C(=C/c2ccco2)C(=O)NCCc2c[nH]c3ccccc23)cc1C | -12.8%
33 | C=C1CCN([C@H](C(=O)NCc2ccc(Cl)c(Cl)c2)C(C)C)S(=O)(=O)c2ccccc21 | -15.1%
34 | COc1ccc(-n2nc3c(N4CCC(C(=O)NCCc5ccco5)CC4)nnc(C)c3c2C)cc1 | 2.45%
35 | COc1cc(C(C(=O)NCC2CCCO2)N(C(=O)Cn2nnc3ccccc32)c2ccc(C(C)=O)cc2)ccc1O (centres unmarked) | 17.4%
36 | COc1ccc(C2CC(c3ccc(OC)cc3)n3nc(NC(=O)c4cccs4)nc3N2)cc1 (centres unmarked) | -13.9%
37 | CC1CCN(S(=O)(=O)c2ccc(NC(=S)NC(=O)c3ccc(Cl)cc3)cc2)CC1 | -5.12%
38 | Cc1ccc(Oc2ccc(Cl)cc2NC(=O)c2ccc(F)cc2F)cc1 | 5.94%

Row | Structure (SMILES) | hERG current change (%, negative = inhibition) at 10uM
39 | Cn1c(=O)c2sccc2n2c(CCCC(=O)NCc3ccco3)nnc12 | -1.92%
40 | Cc1nc2ccc(S(=O)(=O)NCC(=O)NCc3ccc4c(c3)OCO4)cc2s1 | -2.41%
41 | COc1ccc(S(=O)(=O)N2CCOCC2)cc1NC(=O)Cc1c(F)cccc1Cl | 8.42%
42 | O=C(CCNC(=O)c1ccccc1Cl)N/N=C\c1ccc(O)cc1 | -13.8%
43 | CCn1c(Cc2ccccc2)nnc1SC(C)C(=O)NC1CC1 (centres unmarked) | -0.178%
44 | Oc1c(Br)cc(Br)cc1CNc1nccs1 | 11.7%
45 | CC1(C(=O)N2CCOCC2)CCCCC1 | 11.6%
46 | COc1ccc(NC(=O)c2oc3cc(C)c(C)cc3c2C)c(OC)c1 | 16.8%
47 | COc1c(C)cc(C(=O)C2CCCN(Cc3cnc(C)s3)C2)cc1C (centres unmarked) | -7.68%
48 | COc1cccc(/C=N/c2oc(-c3ccccc3)cc2C#N)c1O | 11.9%
49 | Brc1ccc(-c2csc(N/N=C/c3cccnc3)n2)cc1 | 19.6%
50 | O=C(C1CCC(=O)N(C2CCCC2)C1)N1CCN(Cc2cccc(F)c2)CC1 (centres unmarked) | 0.172%
51 | CC[C@@]1(O)C(=O)OCc2c1cc1n(c2=O)Cc2cc3c(NC(=O)CN)cccc3nc2-1.Cl | 16.8%
52 | Cc1ccc(NC(=O)/C=C/c2ccc([N+](=O)[O-])s2)c(C)c1 | -3.74%
53 | CCCCOc1ccc(/C=C/C(=O)Nc2ccc(C(N)=O)cc2)cc1 | 8.81%
54 | Cc1nc2ccccc2c(=O)n1/N=C/c1cn(-c2ccccc2)nc1-c1cccs1 | 5.81%
55 | Cc1cccc(C2c3[nH]c4ccccc4c3CCN2C(=O)c2nn(C)c(=O)c3ccccc23)n1 (centres unmarked) | -19.5%
56 | Cc1cc(/C(O)=C2\C(=O)C(=O)N(CCN(C)C)C2c2ccncc2)ccc1OCc1ccccc1 (centres unmarked) | 3.21%
